# Reference: the supplement of paper PMC10037445
# The full ranking holds about 2,900 compounds; the median of “NF-kB SEAP reporter activity, fold change vs agonist alone” is about 0.99, and the highest 2% start at about 2.6. The list shows a part of the results.
# Key:
# RAW-Dual [1] = assay: NF-kB SEAP reporter activity, fold change vs agonist alone; higher = enhanced NF-kB activity; conditions: library stock concentration (final ~1000-fold dilution): 10 mM
# Method in brief: (§1)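 Reporter activity is given as fold change relative to agonist-alone wells. To measure it, 50 nL of library stock was pin-tooled onto RAW-Dual macrophages (50,000 cells/well, DMEM, 384-well plates), a PRR agonist followed 1 h later, and cells stayed at 37 °C, 5% CO2. Twenty hours on, supernatant was assayed for IRF (QuantiLuc luminescence) and NF-κB (QuantiBlue, 620 nm absorbance), and wells under 70% of agonist-control IncuCyte confluency in both mask sets were marked cytotoxic.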
# RAW-Dual [2] = assay: NF-kB SEAP reporter activity, fold change vs agonist alone; cytotoxicity flag (confluency mask): not cytotoxic; higher = enhanced NF-kB activity
# Method in brief: as §1
# RAW-Dual [3] = assay: NF-kB SEAP reporter activity, fold change vs agonist alone; cytotoxicity flag (confluency mask): cytotoxic (confluency <70% of control); higher = enhanced NF-kB activity
# Method in brief: as §1
# [4] = cytotoxicity flag (confluency mask): not cytotoxic, agonist: Imiquimod (TLR7) […]
# [5] = cytotoxicity flag (confluency mask): not cytotoxic, agonist: MPLA (TLR4) […]
# [6] = agonist: ODN 1826 (TLR9) 0.5 ug/mL
# [7] = agonist: Pam2CSK4 (TLR2/6) 0.1 ug/mL
# [8] = agonist: Pam3CSK4 (TLR2/1) 0.1 ug/mL
# [9] = cytotoxicity flag (confluency mask): cytotoxic (confluency <70% of control), agonist: Imiquimod (TLR7) […]
# [10] = cytotoxicity flag (confluency mask): cytotoxic (confluency <70% of control), agonist: MPLA (TLR4) […]
smiles,measurement,setting,value
Cn1cc(-c2cc3c(-c4ccc(CNC(=O)c5noc(C(C)(C)C)n5)c(F)c4)ncnc3[nH]2)cn1,NF-kB SEAP reporter activity,RAW-Dual [1]; [4],1.51
same,NF-kB SEAP reporter activity,RAW-Dual [1]; [5],1.9
Cn1cc(-c2cc3c(-c4ccc(CNC(=O)c5noc(C(C)(C)C)n5)c(F)c4)ncnc3[nH]2)cn1 (library stock concentration (final ~1000-fold dilution): 10 mM),NF-kB SEAP reporter activity,RAW-Dual [2]; agonist: LPS (TLR4) 0.1 ug/mL,1.94
same,NF-kB SEAP reporter activity,RAW-Dual [2]; [6],1.58
same,NF-kB SEAP reporter activity,RAW-Dual [2]; [7],0.726
same,NF-kB SEAP reporter activity,RAW-Dual [2]; [8],1.37
Nc1n[nH]c2nnc(-c3c(-c4ccccc4)nn4ccccc34)cc12 (library stock concentration (final ~1000-fold dilution): 10 mM),NF-kB SEAP reporter activity,RAW-Dual [2]; agonist: LPS (TLR4) 0.1 ug/mL,1.37
same,NF-kB SEAP reporter activity,RAW-Dual [2]; [6],0.626
same,NF-kB SEAP reporter activity,RAW-Dual [2]; [7],0.577
same,NF-kB SEAP reporter activity,RAW-Dual [2]; [8],0.624
Nc1n[nH]c2nnc(-c3c(-c4ccccc4)nn4ccccc34)cc12,NF-kB SEAP reporter activity,RAW-Dual [1]; [4],0.542
same,NF-kB SEAP reporter activity,RAW-Dual [1]; [5],0.861
Cc1cc(C)c2c(c1)C(N(Cc1cc(C(F)(F)F)cc(C(F)(F)F)c1)c1nnn(C)n1)CCCN2CC1CCC(C(=O)O)CC1 (stereo not drawn),NF-kB SEAP reporter activity,RAW-Dual [1]; [4],0.911
same,NF-kB SEAP reporter activity,RAW-Dual [1]; [5],1.14
Cc1cc(C)c2c(c1)C(N(Cc1cc(C(F)(F)F)cc(C(F)(F)F)c1)c1nnn(C)n1)CCCN2CC1CCC(C(=O)O)CC1 (stereo not drawn) (library stock concentration (final ~1000-fold dilution): 10 mM),NF-kB SEAP reporter activity,RAW-Dual [2]; agonist: LPS (TLR4) 0.1 ug/mL,0.632
same,NF-kB SEAP reporter activity,RAW-Dual [2]; [6],0.635
same,NF-kB SEAP reporter activity,RAW-Dual [2]; [7],0.484
same,NF-kB SEAP reporter activity,RAW-Dual [2]; [8],0.444
CC1=C(C)C(=O)C(CCCCCCCCCC[P+](c2ccccc2)(c2ccccc2)c2ccccc2)=CC1=O (library stock concentration (final ~1000-fold dilution): 10 mM),NF-kB SEAP reporter activity,RAW-Dual [2]; agonist: LPS (TLR4) 0.1 ug/mL,0.32
same,NF-kB SEAP reporter activity,RAW-Dual [2]; [6],0.254
same,NF-kB SEAP reporter activity,RAW-Dual [2]; [7],0.159
same,NF-kB SEAP reporter activity,RAW-Dual [2]; [8],0.223
CC1=C(C)C(=O)C(CCCCCCCCCC[P+](c2ccccc2)(c2ccccc2)c2ccccc2)=CC1=O,NF-kB SEAP reporter activity,RAW-Dual [1]; [4],0.141
same,NF-kB SEAP reporter activity,RAW-Dual [1]; [5],0.218
CN1CCC(=C2c3ccccc3C=Cc3ccccc32)CC1 (library stock concentration (final ~1000-fold dilution): 10 mM),NF-kB SEAP reporter activity,RAW-Dual [2]; agonist: LPS (TLR4) 0.1 ug/mL,0.81
same,NF-kB SEAP reporter activity,RAW-Dual [2]; [6],0.511
same,NF-kB SEAP reporter activity,RAW-Dual [2]; [7],0.682
same,NF-kB SEAP reporter activity,RAW-Dual [2]; [8],0.624
CN1CCC(=C2c3ccccc3C=Cc3ccccc32)CC1,NF-kB SEAP reporter activity,RAW-Dual [1]; [5],1.12
CC(N)C1CCC(C(=O)Nc2ccncc2)CC1.Cl.Cl (stereo not drawn) (library stock concentration (final ~1000-fold dilution): 10 mM),NF-kB SEAP reporter activity,RAW-Dual [2]; agonist: LPS (TLR4) 0.1 ug/mL,1.15
same,NF-kB SEAP reporter activity,RAW-Dual [2]; [6],1.07
same,NF-kB SEAP reporter activity,RAW-Dual [2]; [7],1.15
same,NF-kB SEAP reporter activity,RAW-Dual [2]; [8],1.33
CC(N)C1CCC(C(=O)Nc2ccncc2)CC1.Cl.Cl (stereo not drawn),NF-kB SEAP reporter activity,RAW-Dual [1]; [4],0.965
same,NF-kB SEAP reporter activity,RAW-Dual [1]; [5],1.1
CN1CCN(CC/C=C2/c3ccccc3Sc3ccc(S(=O)(=O)N(C)C)cc32)CC1,NF-kB SEAP reporter activity,RAW-Dual [1]; [9],1.16
same,NF-kB SEAP reporter activity,RAW-Dual [1]; [10],1.42
CN1CCN(CC/C=C2/c3ccccc3Sc3ccc(S(=O)(=O)N(C)C)cc32)CC1 (library stock concentration (final ~1000-fold dilution): 10 mM),NF-kB SEAP reporter activity,RAW-Dual [3]; agonist: LPS (TLR4) 0.1 ug/mL,0.836
same,NF-kB SEAP reporter activity,RAW-Dual [3]; [6],0.865
same,NF-kB SEAP reporter activity,RAW-Dual [3]; [7],0.78
same,NF-kB SEAP reporter activity,RAW-Dual [3]; [8],1.17
CC1OC(OC2C(CO)OC(OC3C(CO)OC(O)C(O)C3O)C(O)C2O)C(O)C(O)C1NC1C=C(CO)C(O)C(O)C1O (stereo not drawn) (library stock concentration (final ~1000-fold dilution): 10 mM),NF-kB SEAP reporter activity,RAW-Dual [2]; agonist: LPS (TLR4) 0.1 ug/mL,1.19
same,NF-kB SEAP reporter activity,RAW-Dual [2]; [6],1.03
same,NF-kB SEAP reporter activity,RAW-Dual [2]; [7],1.02
same,NF-kB SEAP reporter activity,RAW-Dual [2]; [8],1.06
CC1OC(OC2C(CO)OC(OC3C(CO)OC(O)C(O)C3O)C(O)C2O)C(O)C(O)C1NC1C=C(CO)C(O)C(O)C1O (stereo not drawn),NF-kB SEAP reporter activity,RAW-Dual [1]; [4],0.983
same,NF-kB SEAP reporter activity,RAW-Dual [1]; [5],0.951
COc1ccc(-c2ccc3c(N4CCOCC4)nc(N4CC(C)OC(C)C4)nc3n2)cc1CO (stereo not drawn) (library stock concentration (final ~1000-fold dilution): 10 mM),NF-kB SEAP reporter activity,RAW-Dual [2]; agonist: LPS (TLR4) 0.1 ug/mL,0.793
same,NF-kB SEAP reporter activity,RAW-Dual [2]; [6],0.836
same,NF-kB SEAP reporter activity,RAW-Dual [2]; [7],0.365
same,NF-kB SEAP reporter activity,RAW-Dual [2]; [8],0.707
COc1ccc(-c2ccc3c(N4CCOCC4)nc(N4CC(C)OC(C)C4)nc3n2)cc1CO (stereo not drawn),NF-kB SEAP reporter activity,RAW-Dual [1]; [4],0.91
same,NF-kB SEAP reporter activity,RAW-Dual [1]; [5],0.935
CNC1CCCN(c2c(F)cc3c(=O)c(C(=O)O)cn(C4CC4)c3c2OC)C1 (stereo not drawn) (library stock concentration (final ~1000-fold dilution): 10 mM),NF-kB SEAP reporter activity,RAW-Dual [2]; agonist: LPS (TLR4) 0.1 ug/mL,0.905
same,NF-kB SEAP reporter activity,RAW-Dual [2]; [6],0.937
same,NF-kB SEAP reporter activity,RAW-Dual [2]; [7],1.01
same,NF-kB SEAP reporter activity,RAW-Dual [2]; [8],1.06
CNC1CCCN(c2c(F)cc3c(=O)c(C(=O)O)cn(C4CC4)c3c2OC)C1 (stereo not drawn),NF-kB SEAP reporter activity,RAW-Dual [1]; [4],0.968
same,NF-kB SEAP reporter activity,RAW-Dual [1]; [5],0.927
CC1CCC2C(C)C(OC(=O)CCC(=O)O)OC3OC4(C)CCC1C32OO4 (stereo not drawn),NF-kB SEAP reporter activity,RAW-Dual [1]; [4],1.84
same,NF-kB SEAP reporter activity,RAW-Dual [1]; [5],2.5
CC1CCC2C(C)C(OC(=O)CCC(=O)O)OC3OC4(C)CCC1C32OO4 (stereo not drawn) (library stock concentration (final ~1000-fold dilution): 10 mM),NF-kB SEAP reporter activity,RAW-Dual [2]; agonist: LPS (TLR4) 0.1 ug/mL,5.12
same,NF-kB SEAP reporter activity,RAW-Dual [2]; [6],1.67
same,NF-kB SEAP reporter activity,RAW-Dual [2]; [7],1.02
same,NF-kB SEAP reporter activity,RAW-Dual [2]; [8],1.44
O=C1NC(=O)C(c2cnc3ccccn23)=C1c1cn2c3c(cc(F)cc13)CN(C(=O)N1CCCCC1)CC2 (library stock concentration (final ~1000-fold dilution): 10 mM),NF-kB SEAP reporter activity,RAW-Dual [2]; agonist: LPS (TLR4) 0.1 ug/mL,3.19
same,NF-kB SEAP reporter activity,RAW-Dual [2]; [6],2.72
O=C1NC(=O)C(c2cnc3ccccn23)=C1c1cn2c3c(cc(F)cc13)CN(C(=O)N1CCCCC1)CC2,NF-kB SEAP reporter activity,RAW-Dual [1]; [4],2.62
Cc1ccc(S(=O)(=O)c2ccc([N+](=O)[O-])o2)cc1,NF-kB SEAP reporter activity,RAW-Dual [1]; [9],0.219
same,NF-kB SEAP reporter activity,RAW-Dual [1]; [10],0.225
Cc1ccc(S(=O)(=O)c2ccc([N+](=O)[O-])o2)cc1 (library stock concentration (final ~1000-fold dilution): 10 mM),NF-kB SEAP reporter activity,RAW-Dual [3]; agonist: LPS (TLR4) 0.1 ug/mL,0.387
same,NF-kB SEAP reporter activity,RAW-Dual [3]; [6],0.184
same,NF-kB SEAP reporter activity,RAW-Dual [3]; [7],0.0691
same,NF-kB SEAP reporter activity,RAW-Dual [3]; [8],0.14
Cc1cn[nH]c1 (library stock concentration (final ~1000-fold dilution): 10 mM),NF-kB SEAP reporter activity,RAW-Dual [2]; agonist: LPS (TLR4) 0.1 ug/mL,0.88
same,NF-kB SEAP reporter activity,RAW-Dual [2]; [6],1
same,NF-kB SEAP reporter activity,RAW-Dual [2]; [7],1.04
same,NF-kB SEAP reporter activity,RAW-Dual [2]; [8],1.01
Cc1cn[nH]c1,NF-kB SEAP reporter activity,RAW-Dual [1]; [4],0.918
same,NF-kB SEAP reporter activity,RAW-Dual [1]; [5],1.03
CC(C)(C(=O)O)c1ccc(C(O)CCCN2CCC(C(O)(c3ccccc3)c3ccccc3)CC2)cc1.Cl (stereo not drawn),NF-kB SEAP reporter activity,RAW-Dual [1]; [4],1.09
same,NF-kB SEAP reporter activity,RAW-Dual [1]; [5],1
CC(C)(C(=O)O)c1ccc(C(O)CCCN2CCC(C(O)(c3ccccc3)c3ccccc3)CC2)cc1.Cl (stereo not drawn) (library stock concentration (final ~1000-fold dilution): 10 mM),NF-kB SEAP reporter activity,RAW-Dual [2]; agonist: LPS (TLR4) 0.1 ug/mL,0.919
same,NF-kB SEAP reporter activity,RAW-Dual [2]; [6],1.05
same,NF-kB SEAP reporter activity,RAW-Dual [2]; [7],1.07
same,NF-kB SEAP reporter activity,RAW-Dual [2]; [8],1.12
O=C(C=Cn1cnc(-c2cc(C(F)(F)F)cc(C(F)(F)F)c2)n1)NNc1ccccn1 (library stock concentration (final ~1000-fold dilution): 10 mM),NF-kB SEAP reporter activity,RAW-Dual [2]; agonist: LPS (TLR4) 0.1 ug/mL,0.246
same,NF-kB SEAP reporter activity,RAW-Dual [2]; [6],0.652
same,NF-kB SEAP reporter activity,RAW-Dual [2]; [7],0.295
same,NF-kB SEAP reporter activity,RAW-Dual [2]; [8],0.214
O=C(C=Cn1cnc(-c2cc(C(F)(F)F)cc(C(F)(F)F)c2)n1)NNc1ccccn1,NF-kB SEAP reporter activity,RAW-Dual [1]; [4],1.25
same,NF-kB SEAP reporter activity,RAW-Dual [1]; [5],1.12
O=C(Nc1ccccc1Br)NC1CCN(c2ccc(C(F)(F)F)cn2)C1 (stereo not drawn),NF-kB SEAP reporter activity,RAW-Dual [1]; [4],0.511
same,NF-kB SEAP reporter activity,RAW-Dual [1]; [5],0.601
O=C(Nc1ccccc1Br)NC1CCN(c2ccc(C(F)(F)F)cn2)C1 (stereo not drawn) (library stock concentration (final ~1000-fold dilution): 10 mM),NF-kB SEAP reporter activity,RAW-Dual [2]; agonist: LPS (TLR4) 0.1 ug/mL,1.02
same,NF-kB SEAP reporter activity,RAW-Dual [2]; [6],0.991
same,NF-kB SEAP reporter activity,RAW-Dual [2]; [7],0.986
same,NF-kB SEAP reporter activity,RAW-Dual [2]; [8],0.645
